# Laboratory results: the supplement of paper PMC6609913
# Structures can show the parent of a compound that is named as a salt. ± gives the standard deviation of the averaged measurements. Whole data set: some 1,300 compounds, median “normalised cell viability” near 1, cut for the lowest 2% near 0.15. This is one part of the list.
# System: V-C8 + BRCA2 (BRCA2-proficient hamster cells)
# Assay: normalised cell viability (fraction of plate median); higher = more viable cells (less toxic)
# Settings: 5 µM
# Procedure, shortened: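 Library drugs, held as 10 mM stocks in DMSO, were diluted to 5 μM in 100 μl medium and added to 96-well plates of V-C8 hamster cells, either lacking BRCA2 or with BRCA2 restored, 24 h after seeding. Plates ran for 3 days (screen 1) or 6 days (screen 2), alongside solvent-only wells. Viability came from a resazurin readout, median-plate normalised, as the mean of triplicate wells.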
SMILES,normalised cell viability (treatment time: 3 days),normalised cell viability (treatment time: 6 days)
CC(C)(C)NC[C@H](O)COc1nsnc1N1CCOCC1 [Timolol maleate salt],1.06 ± 0.072,0.943 ± 0.042
O=C(Nc1cccc2c(=O)cc(-c3nnn[nH]3)oc12)c1ccc(OCCCCc2ccccc2)cc1 [Pranlukast],1.06 ± 0.05,1.08 ± 0.049
O=C(O)Cc1ccccc1Nc1c(Cl)cccc1Cl [Diclofenac sodium],1.02 ± 0.081,0.9903 ± 0.0069
C[C@@H](c1ncncc1F)[C@](O)(Cn1cncn1)c1ccc(F)cc1F [Voriconazole],0.963 ± 0.037,1.04 ± 0.11
CN1CCN(CCCN2c3ccccc3Sc3ccc(S(=O)(=O)N(C)C)cc32)CC1 [Thioproperazine dimesylate],0.884 ± 0.11,0.834 ± 0.039
CC(=O)Oc1cc(C(F)(F)F)ccc1C(=O)O [Triflusal],0.996 ± 0.035,1.05 ± 0.011
O=c1[nH]cc(F)c(=O)[nH]1 [5-fluorouracil],0.384 ± 0.0096,0.358 ± 0.016
C[C@]12C=CC(=O)C=C1CC[C@@H]1[C@@H]2[C@@H](O)C[C@@]2(C)[C@H]1CC[C@]2(O)C(=O)CO [Prednisolone],1.07 ± 0.076,0.968 ± 0.044
CC(C)Cc1ccc([C@H](C)C(=O)O)cc1 [S-(+)-ibuprofen],1.01 ± 0.04,0.864 ± 0.076
CS(=O)(=O)c1ccc([C@@H](O)[C@@H](CO)NC(=O)C(Cl)Cl)cc1 [Thiamphenicol],0.9701 ± 0.0087,0.927 ± 0.02
NS(=O)(=O)c1cc2c(cc1Cl)N=C(CSCc1ccccc1)NS2(=O)=O [Benzthiazide],0.988 ± 0.033,1.01 ± 0.13
O=C1C(CC[S+]([O-])c2ccccc2)C(=O)N(c2ccccc2)N1c1ccccc1 (configuration not stated) [Sulfinpyrazone],0.996 ± 0.025,0.978 ± 0.034
CC(=O)O[C@]1(C(C)=O)CC[C@H]2[C@@H]3C=C(C)C4=CC(=O)CC[C@@H]4[C@H]3CC[C@@]21C [Nomegestrol acetate],1 ± 0.029,1.06 ± 0.063
CO[C@@]1(NC(=O)C(C(=O)O)c2ccc(O)cc2)C(=O)N2C(C(=O)O)=C(CSc3nnnn3C)CO[C@@H]21 (some centres not stated) [Moxalactam disodium salt],1.08 ± 0.038,1.06 ± 0.032
C#C[C@]1(O)CC[C@H]2[C@@H]3CCC4=CC(=O)CC[C@@H]4[C@H]3CC[C@@]21C [Norethindrone],0.951 ± 0.039,1 ± 0.054
C#C[C@]1(OC(C)=O)CC[C@H]2[C@@H]3CCC4=C[C@@H](OC(C)=O)CC[C@@H]4[C@H]3CC[C@@]21C [Ethynodiol diacetate],1.1 ± 0.11,0.91 ± 0.16
Nc1ccc(S(=O)(=O)Nc2ncccn2)cc1 [Sulfadiazine],1.01 ± 0.068,1.024 ± 0.0048
Clc1ccccc1CN1CCc2sccc2C1 [Ticlopidine hydrochloride],1.09 ± 0.027,1.01 ± 0.068
CCN(CC)CCOC(=O)C1(c2ccc([N+](=O)[O-])cc2)CCCC1 [Nitrocaramiphen hydrochloride],1.06 ± 0.024,1.038 ± 0.0056
Nc1ccc(O)c(C(=O)O)c1 [Mesalamine],1.03 ± 0.044,0.922 ± 0.28
Cc1cc(C(C)(C)CC(C)(C)C)ccc1OCCOCC[N+](C)(C)Cc1ccccc1 [Methyl benzethonium chloride],0.954 ± 0.036,0.915 ± 0.052
Cc1cc(NC(=O)C2=C(O)c3ccccc3S(=O)(=O)N2C)no1 [Isoxicam],1.11 ± 0.065,1.05 ± 0.068

SMILES,normalised cell viability (treatment time: 3 days),normalised cell viability (treatment time: 6 days)
CN(C)CCCN1c2ccccc2CCc2ccc(Cl)cc21 [Clomipramine hydrochloride],0.911 ± 0.017,0.97 ± 0.024
CO[C@@]1(NC(=O)C2SC(=C(C(N)=O)C(=O)O)S2)C(=O)N2C(C(=O)O)=C(CSc3nnnn3C)CS[C@@H]21 (some centres not stated) [Cefotetan],0.907 ± 0.075,0.966 ± 0.065
COC(=O)C1=C(C)NC(C)=C(C(=O)OC)C1c1ccccc1[N+](=O)[O-] [Nifedipine],0.997 ± 0.023,0.981 ± 0.042
CC(C)NCC(O)c1ccc(NS(C)(=O)=O)cc1 (configuration not stated) [Sotalol hydrochloride],0.971 ± 0.029,1.02 ± 0.024
C#C[C@]1(O)CC[C@H]2[C@@H]3CCc4cc(OC)ccc4[C@H]3CC[C@@]21C [Ethynylestradiol 3-methyl ether],0.955 ± 0.033,0.942 ± 0.077
CN(CCOc1ccc(NS(C)(=O)=O)cc1)CCc1ccc(NS(C)(=O)=O)cc1 [Dofetilide],1.02 ± 0.016,1.05 ± 0.054
CC(=O)N1CCN(c2ccc(OCC3COC(Cn4ccnc4)(c4ccc(Cl)cc4Cl)O3)cc2)CC1 (configuration not stated) [Ketoconazole],0.945 ± 0.039,1.07 ± 0.05
CCN(CC)CCCC(C)Nc1c2ccc(Cl)cc2nc2ccc(OC)cc12 (configuration not stated) [Quinacrine dihydrochloride dihydrate],0.133 ± 0.0038,0.107 ± 0.0083
CCCCCCCCCCCCCCCC[N+](C)(C)CCN(Cc1ccc(OC)cc1)c1ncccn1 [Thonzonium bromide],0.787 ± 0.094,0.74 ± 0.19
COC(=O)[C@H]1[C@H]2C[C@@H]3c4[nH]c5cc(OC)ccc5c4CCN3C[C@H]2C[C@@H](OC(=O)c2cc(OC)c(OC)c(OC)c2)[C@@H]1OC [Reserpine],0.82 ± 0.083,0.928 ± 0.078
CC(C)C[C@H](NC(=O)[C@@H](O)[C@H](N)Cc1ccccc1)C(=O)O [Ubenimex],1.01 ± 0.013,1.01 ± 0.013
CNC(=C[N+](=O)[O-])NCCSCc1ccc(CN(C)C)o1 [Ranitidine hydrochloride],0.992 ± 0.018,1.02 ± 0.037
CCOC(=O)Nc1ccc2c(c1)N(C(=O)CCN1CCOCC1)c1ccccc1S2 [Moricizine hydrochloride],1.09 ± 0.036,1.16 ± 0.12
CCC(=O)[C@@]1(C)[C@H](C)C[C@H]2[C@@H]3CCC4=CC(=O)C=C[C@]4(C)[C@H]3[C@@H](O)C[C@@]21C [Rimexolone],1.04 ± 0.054,0.86 ± 0.18
CCc1cc(C(N)=S)ccn1 [Ethionamide],0.997 ± 0.021,0.945 ± 0.11
CC(=O)Nc1c(I)c(NC(C)=O)c(I)c(C(=O)O)c1I [Diatrizoic acid dihydrate],0.996 ± 0.035,1.05 ± 0.077
CN(N=O)C(=O)N[C@@H](C=O)[C@@H](O)[C@H](O)[C@H](O)CO [Streptozotocin],1.07 ± 0.073,1.06 ± 0.053
CN1CCN(C(c2ccccc2)c2ccc(Cl)cc2)CC1 (configuration not stated) [Chlorcyclizine hydrochloride],1.05 ± 0.17,0.833 ± 0.098
O=C(N/N=C/c1ccc([N+](=O)[O-])o1)c1ccc(O)cc1 [Nifuroxazide],0.488 ± 0.023,0.437 ± 0.077
"O=C1C=CC(=O)c2c1ccc1c2ccc2ccccc21 [Chrysene-1,4-quinone]",1.024 ± 0.0027,1 ± 0.11
Cc1ccc(/C(=C\CN2CCCC2)c2ccccn2)cc1 [Triprolidine hydrochloride],1.01 ± 0.025,1.09 ± 0.029
CC(C)(O/N=C(\C(=O)N[C@@H]1C(=O)N2C(C(=O)[O-])=C(C[n+]3ccccc3)CS[C@H]12)c1csc(N)n1)C(=O)O [Ceftazidime pentahydrate],1.03 ± 0.011,1 ± 0.039

SMILES,normalised cell viability (treatment time: 3 days),normalised cell viability (treatment time: 6 days)
Cc1c(Cl)cccc1Nc1ncccc1C(=O)O [Clonixin Lysinate],0.938 ± 0.067,0.983 ± 0.046
CNCCC=C1c2ccccc2CCc2ccccc21 [Nortriptyline hydrochloride],0.876 ± 0.045,0.904 ± 0.033
C[C@H]1[C@H](NC(=O)/C(=N\OC(C)(C)C(=O)O)c2csc(N)n2)C(=O)N1S(=O)(=O)O [Aztreonam],0.977 ± 0.025,1.03 ± 0.043
CCc1c2c(nc3ccc(OC(=O)N4CCC(N5CCCCC5)CC4)cc13)-c1cc3c(c(=O)n1C2)COC(=O)[C@]3(O)CC [Irinotecan Hydrochloride],0.797 ± 0.036,0.743 ± 0.038
COc1cc(C)nc(-n2nc(C)cc2OC)n1 [Epirizole],1.05 ± 0.028,0.992 ± 0.015
CS(=O)(=O)Nc1ccc([N+](=O)[O-])cc1Oc1ccccc1 [Nimesulide],1.04 ± 0.029,1.09 ± 0.1
CCn1cc(C(=O)O)c(=O)c2cc(F)c(N3CCNC(C)C3)c(F)c21 (configuration not stated) [Lomefloxacin hydrochloride],0.99 ± 0.1,0.982 ± 0.078
CNC(=C[N+](=O)[O-])NCCSCc1csc(CN(C)C)n1 [Nizatidine],1 ± 0.012,1.05 ± 0.042
C[C@]12C=CC(=O)C=C1CC[C@@H]1[C@@H]2C(=O)C[C@@]2(C)[C@H]1CC[C@]2(O)C(=O)CO [Prednisone],0.942 ± 0.026,1.03 ± 0.17
C[C@@H]1CN(c2c(F)c(N)c3c(=O)c(C(=O)O)cn(C4CC4)c3c2F)C[C@H](C)N1 [Sparfloxacin],1.027 ± 0.009,1.05 ± 0.056
CCn1cc(C(=O)O)c(=O)c2cc(F)c(N3CCN(C)CC3)cc21 [Pefloxacine],1.048 ± 0.0097,1.09 ± 0.042
CC[C@]12CCCN3CCc4c(n(c5ccccc45)C(=O)C1)[C@@H]32 [Eburnamonine (-)],0.469 ± 0.075,0.493 ± 0.16
CC(=O)Oc1cc(C(C)C)c(OCCN(C)C)cc1C [Moxisylyte hydrochoride],1.04 ± 0.0057,1.04 ± 0.021
CC(c1cc2ccccc2s1)N(O)C(N)=O (configuration not stated) [Zileuton],1.04 ± 0.029,1.04 ± 0.035
COc1cc(C)c(/C=C/C(C)=C/C=C/C(C)=C/C(=O)O)c(C)c1C [Acitretin],0.936 ± 0.031,0.9633 ± 0.0092
CC(C)OC(=O)CCC/C=C\C[C@@H]1[C@@H](CC[C@@H](O)CCc2ccccc2)[C@H](O)C[C@@H]1O [Latanoprost],1.12 ± 0.051,0.955 ± 0.077
NS(=O)(=O)c1cc2c(cc1Cl)NCNS2(=O)=O [Hydrochlorothiazide],0.885 ± 0.087,1.01 ± 0.035
C[N+]1(C)CCC(=C(c2ccccc2)c2ccccc2)CC1 [Diphemanil methylsulfate],0.949 ± 0.027,0.953 ± 0.031
CN(C)CCC=C1c2ccccc2C=Cc2ccccc21 [Cyclobenzaprine hydrochloride],1.06 ± 0.062,1.08 ± 0.034
O=c1[nH]c(=O)n([C@H]2C[C@H](O)[C@@H](CO)O2)cc1F [Floxuridine],0.179 ± 0.0082,0.236 ± 0.018
CNNCc1ccc(C(=O)NC(C)C)cc1 [Procarbazine hydrochloride],0.879 ± 0.049,0.956 ± 0.099
COc1cc2nc(N3CCN(C(=O)C4CCCO4)CC3)nc(N)c2cc1OC (configuration not stated) [Terazosin hydrochloride],1.03 ± 0.032,1.09 ± 0.075
